Some of the results follow.
What follows are molecules tested on T1, C. trachomatis L2/434/Bu expressing GFP (CTL2-GFP). Conditions: total inclusion area; 28.5 h, 10 µM; inhibitor.
T1 construct: L2/434/Bu GFP intracellular growth in HeLa cells
Set-up: species or system HeLa; C. trachomatis total inclusion area by high-content imaging, normalised to DMSO
In short: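 High-content imaging followed the bulk GFP/resorufin measurement: fixed, Hoechst-stained cells were scored for GFP inclusions and host nuclei per well. Total inclusion area and count served as growth proxies, nuclei number as the viability proxy. MIC calculation matched the bulk assay.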

Question: Which “% of control remaining” value does the source give for `O=C(Oc1cccc2cccnc12)c1cccc(S(=O)(=O)Oc2cccc3cccnc23)c1` [CBK264545] here?
Answer: 107.058

Question: With `Cc1ccc(N2CCCN(C(=O)COc3ccccc3F)CC2)nn1` [CBK305261] as the molecule, how does the “% of control remaining” value read?
Answer: 29.3648

Question: Which “% of control remaining” value does the source give for `Cc1ccc(-n2c(=O)[nH]c3c(C(=O)Nc4ccccc4)cn(C)c3c2=O)cc1` [CBK287651] here?
Answer: 112.015

Question: How did the “% of control remaining” value turn out when `CCn1c(=O)n(CC(=O)N(C(C)C)C(C)C)c2cccnc21` [CBK283943] was run?
Answer: 84.0031

Question: For `CCN(Cc1ccco1)C(=O)NC1CCCc2c1cnn2CCO` (stereo not shown) [CBK305767], which “% of control remaining” value is on record?
Answer: 100.958

Question: With `O=S(=O)(/C=C/c1ccccc1)Nc1cccc2cc[nH]c12` [CBK155788] as the molecule, how does the “% of control remaining” value read?
Answer: 88.6908

Question: How did the “% of control remaining” value turn out when `Cc1c(Cl)cccc1S(=O)(=O)Nc1nc(CSc2ccccn2)ns1` [CBK200054] was run?
Answer: 81.8465

Question: With `Cc1nn(C(C)CC(=O)NCCN2CCC(C)CC2)c(C)c1Cl` (stereo not shown) [CBK281558] as the molecule, how does the “% of control remaining” value read?
Answer: 91.8694

Question: With `CC1CC(C)CN(CCCNC(=O)c2cc(-c3cccs3)no2)C1` (stereo not shown) [CBK281949] as the molecule, how does the “% of control remaining” value read?
Answer: 113.145

Question: How did the “% of control remaining” value turn out when `c1ccc(Cn2cc(-c3nccnc3OCCn3ccnc3)cn2)cc1` [CBK107102] was run?
Answer: 77.7155

Question: `CC(=O)Nc1cc2ccccc2nc1C1CCN(C(=O)C(C)C)CC1` [CBK285259] was tested. Which “% of control remaining” value did it give?
Answer: 80.926

Question: With `CC(C)(CO)CNc1cc(Cl)nc2ccnn12` [CBK037200] as the molecule, how does the “% of control remaining” value read?
Answer: 96.85

Question: `COc1cccc(C(=O)Nc2ccc(O)c(C)c2)c1` [CBK264413] was tested. Which “% of control remaining” value did it give?
Answer: 110.155

Question: How did the “% of control remaining” value turn out when `COc1ccc(CCNC(=S)NC2CC3CCC2C3)cc1OC` (stereo not shown) [CBK015410] was run?
Answer: 71.9386

Question: With `Cc1cc(-c2ccc([N+](=O)[O-])cc2)nc2ccc3ccccc3c12` [CBK263253C] as the molecule, how does the “% of control remaining” value read?
Answer: 62.4051

Question: With `Cc1[nH]c2ccccc2c1C(=O)CSc1nc2scc(-c3ccco3)c2c(=O)n1-c1ccccc1` [CBK267933] as the molecule, how does the “% of control remaining” value read?
Answer: 114.172

Question: For `O=C1NC2CCCCC2NC1CC(=O)N1CCN(Cc2ccccc2)CC1` (stereo not shown) [CBK269484], which “% of control remaining” value is on record?
Answer: 84.2892

Question: With `O=S(=O)(c1ccc(-n2cnc(Cl)c2Cl)cc1)N1CCCN(Cc2ccc3cccc(O)c3n2)CC1` [CBK063088] as the molecule, how does the “% of control remaining” value read?
Answer: 66.3465

Question: Which “% of control remaining” value does the source give for `CCCCN1CC(C(=O)OCC)=C(O)C1=O` [CBK028774] here?
Answer: 55.2687

Question: Which “% of control remaining” value does the source give for `Cc1ccc(S(N)(=O)=O)cc1C(=O)Nc1nncs1` [CBK050456] here?
Answer: 55.9545

Question: `Nc1nccc2c1ncn2[C@H]1C[C@@H](O)[C@@H](CO)O1` [CBK201157] was tested. Which “% of control remaining” value did it give?
Answer: 106.27

Question: With `Cc1ccc(C(=O)Nc2cccc(-c3ccc4nnc(C)n4n3)c2)cc1` [CBK287683] as the molecule, how does the “% of control remaining” value read?
Answer: 56.1119

Question: With `Cc1c(NC(=O)Nc2ccc(Cl)cc2)sc(=S)n1C` [CBK027495] as the molecule, how does the “% of control remaining” value read?
Answer: 64.8352

Question: For `Cc1c(C(C)NCCc2nnc[nH]2)cnn1-c1ccc(C#N)cc1` (stereo not shown) [CBK304063], which “% of control remaining” value is on record?
Answer: 39.3385

Question: With `CC1CCc2c(sc(NC(=O)c3ccncc3)c2C(N)=O)C1` (stereo not shown) [CBK288530] as the molecule, how does the “% of control remaining” value read?
Answer: 108.085

Question: For `CC1CCc2c(sc3nc(SCC(=O)NC(c4ccccc4)c4ccccc4)nc(N)c23)C1` (stereo not shown) [CBK267274], which “% of control remaining” value is on record?
Answer: 102.045

Question: How did the “% of control remaining” value turn out when `CCCS(=O)(=O)N1CCC(C(=O)NCc2ccc(Cl)cc2Cl)CC1` [CBK305559] was run?
Answer: 37.2718

Question: For `Cc1cc(C[C@@H]2CCC[C@H]2NCc2nc3ccccc3[nH]2)on1` [CBK284935], which “% of control remaining” value is on record?
Answer: 87.3959

Question: With `CC(C)(C)C1CCC(OC(=O)CCC(=O)Nc2nccs2)CC1` (stereo not shown) [CBK260890] as the molecule, how does the “% of control remaining” value read?
Answer: 92.1801

Question: `Cc1ccc(-c2cnc(SCC(N)=O)n2-c2ccccc2)cc1` [CBK287757] was tested. Which “% of control remaining” value did it give?
Answer: 105.185

Question: How did the “% of control remaining” value turn out when `CCN(CC)C1=NC(=S)N(C)C(c2ccc(OC)cc2)S1` (stereo not shown) [CBK006804] was run?
Answer: 74.1302

Question: How did the “% of control remaining” value turn out when `Cc1cc(C)c2[nH]c(C)c(CC(=O)N(C)CCN(C)C)c2c1` [CBK282731] was run?
Answer: 105.029

Question: Which “% of control remaining” value does the source give for `CCN(CC)C(=O)c1sc2ncccc2c1NS(=O)(=O)c1cc(Cl)sc1Cl` [CBK050615] here?
Answer: 94.2998

Question: `Cc1nc(S(=O)(=O)N2CCC(C(=O)N3CCCC3)CC2)cn1C` [CBK305786] was tested. Which “% of control remaining” value did it give?
Answer: 57.0951

Question: With `Cc1ccc(N(Cc2cc3cccc(C)c3nc2O)C(=O)c2cccc([N+](=O)[O-])c2)cc1` [CBK265426] as the molecule, how does the “% of control remaining” value read?
Answer: 84.8309

Question: Which “% of control remaining” value does the source give for `CCCNCCc1ccc(NC(=O)Nc2cc(F)cc3c2OCOC3)cc1` [CBK173887T] here?
Answer: 72.6454

Question: Which “% of control remaining” value does the source give for `CC(=O)Nc1cccc(C(=O)OCC(=O)N2CCCC2)c1` [CBK306395] here?
Answer: 70.8017

Question: For `O=C(NCCc1cccs1)C(c1ccccc1)c1ccccc1` [CBK270275], which “% of control remaining” value is on record?
Answer: 109.146

Question: For `O=C(CC1CCCO1)NS(=O)(=O)c1cccc(-c2nnco2)c1` (stereo not shown) [CBK305267], which “% of control remaining” value is on record?
Answer: 62.9447

Question: With `COc1ccc(C2C=C(c3ccc(OC)c(OC)c3)Nc3ncnn32)c(OC)c1` (stereo not shown) [CBK293934] as the molecule, how does the “% of control remaining” value read?
Answer: 101.592

— article PMC12040169 (PLOS Biology, 2025)
